Laboratory results reported in PubChem BioAssay AID720709 (National Center for Advancing Translational Sciences (NCATS), 2013).
Out of some 360,000 compounds screened, about 520 (0.14%) were called active. Inconclusive results, whose numbers are uncertain, are shown with a selection of clear calls. Calls come from the whole dose curve; as a rule, active = well fitted inhibition curve with a large enough effect; inconclusive = small, poorly fitted or top-dose-only effect; inactive = no such curve, though single readings can be large or run the other way. Potencies of inconclusive entries are left out as doubtful fits.

Biological target: Rap guanine nucleotide exchange factor 3 (Homo sapiens) (UniProt O95398)
Assay: qHTS for Antagonist of cAMP-regulated guanine nucleotide exchange factor 3 (EPAC1): primary screen; note: nearly all actives have a fitted effect of over 50% in size;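 for activity change, negative = inhibition: plate controls were vehicle for no effect and positive control for full effect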
Details: EPAC1 GEF assay, Rap1b-BODIPY-GDP exchange fluorescence; activity change, negative = inhibition: at 115 µM (top of the series)
Potency is the fitted concentration of half-maximal effect; tags give direction and shape of the fitted curve.

Chain of UniProt O95398 (O95398 whole entry, looked up): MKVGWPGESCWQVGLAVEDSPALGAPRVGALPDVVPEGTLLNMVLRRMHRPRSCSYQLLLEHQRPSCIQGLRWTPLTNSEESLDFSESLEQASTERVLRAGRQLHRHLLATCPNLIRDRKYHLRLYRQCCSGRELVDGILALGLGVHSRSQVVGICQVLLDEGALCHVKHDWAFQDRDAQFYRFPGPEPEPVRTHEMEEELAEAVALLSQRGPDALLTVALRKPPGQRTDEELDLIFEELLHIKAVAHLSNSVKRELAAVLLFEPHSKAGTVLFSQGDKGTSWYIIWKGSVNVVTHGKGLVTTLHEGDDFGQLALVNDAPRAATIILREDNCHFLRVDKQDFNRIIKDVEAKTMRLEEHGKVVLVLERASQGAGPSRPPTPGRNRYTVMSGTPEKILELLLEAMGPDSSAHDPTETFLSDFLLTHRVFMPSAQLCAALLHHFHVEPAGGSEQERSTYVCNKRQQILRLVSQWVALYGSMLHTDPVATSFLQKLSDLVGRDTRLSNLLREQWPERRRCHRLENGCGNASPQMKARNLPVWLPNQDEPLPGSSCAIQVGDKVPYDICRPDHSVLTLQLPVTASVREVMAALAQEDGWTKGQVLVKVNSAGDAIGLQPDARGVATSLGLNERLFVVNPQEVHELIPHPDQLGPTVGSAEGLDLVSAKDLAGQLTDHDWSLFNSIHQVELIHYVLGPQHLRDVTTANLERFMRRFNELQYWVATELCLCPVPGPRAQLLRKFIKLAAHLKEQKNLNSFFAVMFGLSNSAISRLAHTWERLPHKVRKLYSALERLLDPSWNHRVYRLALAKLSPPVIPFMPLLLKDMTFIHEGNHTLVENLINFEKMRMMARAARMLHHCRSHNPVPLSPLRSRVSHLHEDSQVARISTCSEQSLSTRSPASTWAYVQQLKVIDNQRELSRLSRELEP

Row | SMILES | Potency | activity change, negative = inhibition
1 | CCc1c(C)nc2cc(-c3ccc(OC)c(OC)c3)nn2c1N1CCCC1 | inconclusive [inhibitor, partial curve] | 
2 | CC[C@]12c3[nH]c4cc(-c5ccco5)ccc4c3CCN1C(=O)[C@@H](CC(=O)NCCCOC)C[C@@H]2C(=O)N1CCN(C(=O)C2CC2)CC1 | inconclusive [inhibitor, partial curve] | 
3 | Cc1nn(C)c(C(=O)NNC(=S)NCc2ccco2)c1Br | inconclusive [inhibitor, partial curve, poor fit] | 
4 | CS(=O)(=O)N(Cc1ccccc1)c1ccccc1C(=O)N1CCN(c2ccccc2)CC1 | inconclusive [inhibitor, full curve, poor fit] | 
5 | COc1ccc(CNC(=O)Cn2cccc2C(=O)c2ccccc2C)cc1 | inconclusive [inhibitor, full curve, poor fit] | 
6 | O=C(CSc1cccc2cccnc12)Nc1cccc(S(=O)(=O)N2CCOCC2)c1 |  | inactive: -9.03%
7 | OCCCNC(=S)Nc1ccc(Nc2ccccc2)cc1 | inconclusive [inhibitor, full curve] | 
8 | COc1cccc(OCC(O)CN2C(C)CCCC2C)c1 (stereo not drawn) | inconclusive [inhibitor, partial curve, poor fit] | 
9 | Cc1occc1C(=O)NNC(=O)c1ccccc1F | inconclusive [inhibitor, single point] | 
10 | CC1(C(=O)NS(=O)(=O)c2ccc(Cl)s2)CCN1C(=O)C1(c2ccc(Cl)cc2)CCC1 (stereo not drawn) | inconclusive [inhibitor, partial curve] | 
11 | Cc1cc(C(=O)Nc2ccccc2C(=O)O)c(C)o1 | inconclusive [inhibitor, full curve, poor fit] | 
12 | O=C(Oc1ccccc1)N1CCN(C(=O)c2ccco2)CC1 | inconclusive [inhibitor, partial curve] | 
13 | Cc1ccc2nc(-c3ccco3)c(Cc3cccc(Cl)c3)n2c1 |  | inactive: -18.2%
14 | Cc1cccc(NC(=O)CN2C(=O)N/C(=C\c3cccn3-c3cccc(C(=O)O)c3)C2=O)c1 | inconclusive [inhibitor, single point] | 
15 | Cc1ccc(C)c(NC(=O)CSc2nnc(-c3ccncc3)n2N)c1 | inconclusive [inhibitor, partial curve] | 
16 | CCN(C(=O)CN1CCCc2cc(C)ccc21)c1c(N)n(Cc2ccccc2)c(=O)[nH]c1=O | inconclusive [inhibitor, partial curve] | 
17 | Nc1ccc(S(=O)(=O)Nc2nccs2)cc1N=Nc1ccccc1[N+](=O)[O-] | inconclusive [inhibitor, partial curve] | 
18 | CCc1ccc(O)c(N=Cc2ccccc2O)c1 |  | inactive: 6.72%
19 | COc1ccc(S(=O)Cc2ccc(C(=O)NC3CC3)o2)cc1 (stereo not drawn) | inconclusive [inhibitor, full curve, poor fit] | 
20 | Cc1ccc(-c2noc(CCC(=O)NCc3ccco3)n2)cc1 | inconclusive [inhibitor, single point] | 
21 | O=C(NNc1c2ccccc2nc2ccccc12)c1cc2ccccc2cc1O | inconclusive [inhibitor, partial curve] | 

Row | SMILES | Potency | activity change, negative = inhibition
22 | CC(C1CC2CCC1C2)N1CC(O)=C(c2nc3ccccc3[nH]2)C1=N (stereo not drawn) | inconclusive [inhibitor, single point] | 
23 | Fc1ccc2nc(N3CCOCC3)sc2c1 |  | inactive: 0.48%
24 | CCOc1ccccc1N1CCN(C(=O)c2cc[n+]([O-])cc2)CC1 | inconclusive [inhibitor, partial curve] | 
25 | COc1ccc(NC(=O)/C(C#N)=C\c2ccc(OCc3ccc(C(=O)O)cc3)c(OC)c2)cc1 | inconclusive [inhibitor, partial curve, poor fit] | 
26 | O=C(OC1CC2CC1[C@H]1CCCCN1C2=O)N1CCCCC1 (stereo partly drawn) |  | inactive: 11.1%
27 | N#C/C(=C\c1ccc(N2CCOCC2)o1)c1nc2ccccc2[nH]1 |  | inactive: -16.8%
28 | COc1ccc(NC(=O)c2sc3nc(C)nc(N4CCN(c5ccccn5)CC4)c3c2C)cc1Cl | inconclusive [inhibitor, full curve] | 
29 | CC[n+]1c(/C=C2\Sc3ccccc3N2C)ccc2cccc(C)c21 | inconclusive [inhibitor, single point] | 
30 | Cc1ccccc1C(=O)N1CCN(c2ccc(NC(=S)NC(=O)c3cccs3)cc2)CC1 | inconclusive [inhibitor, single point] | 
31 | O=C(c1ccc(Br)o1)N1CCN(c2ccc3nnc(-c4ccc(F)cc4)n3n2)CC1 | inconclusive [inhibitor, single point] | 
32 | O=C(COC(=O)/C=C/c1ccccc1)Nc1ccc(Cl)cn1 |  | inactive: 15.2%
33 | Cc1cc(NS(=O)(=O)c2ccc(Nc3nc(-c4ccc(C)c(C)c4)cs3)cc2)no1 | inconclusive [inhibitor, partial curve] | 
34 | NC(=O)C1=C[C@@H](c2csc3ccccc23)C[C@@H](OCc2ccc(CO)cc2)O1 | inconclusive [inhibitor, single point] | 
35 | S=C(NCc1ccccc1)NC1CCCc2ccccc21 (stereo not drawn) | inconclusive [inhibitor, full curve, poor fit] | 
36 | CC1(C(=O)NCc2ccccc2)CN(S(C)(=O)=O)CC(=O)N1C1CC1 (stereo not drawn) |  | inactive: -4.03%
37 | Cc1ccc(S(=O)(=O)Nc2ccc(Cl)cc2C(=O)c2ccccc2)cc1 | inconclusive [inhibitor, partial curve] | 
38 | CCc1nc2c(OCc3ccccc3C)cccn2c1N(C)C(=O)C1CC1 |  | inactive: -4.27%
39 | COc1cc2c(C#N)c(N3CCCC3)nc(N)c2c(N)n1 | inconclusive [inhibitor, full curve] | 
40 | CC(=O)c1cccc(NC(=O)NCc2ccco2)c1 |  | inactive: 2.94%
41 | NC(=O)CC(NC(=O)Cc1ccc(Cl)cc1)c1ccc(NC2CCN(Cc3ccccc3)CC2)c([N+](=O)[O-])c1 (stereo not drawn) | inconclusive [inhibitor, single point] | 
42 | Oc1ccc(N2CCN(Cc3nc4ccccc4[nH]3)CC2)cc1 | inconclusive [inhibitor, single point] | 

Row | SMILES | Potency | activity change, negative = inhibition
43 | CC(/C=C/c1ccccc1)=N/NC(=O)c1cc([N+](=O)[O-])cc([N+](=O)[O-])c1 | inconclusive [inhibitor, single point] | 
44 | CC(C)CCNC(=O)C(=O)Nc1cc2c3c(c1)CCC(=O)N3CCC2 | inconclusive [inhibitor, full curve, poor fit] | 
45 | COc1ccc(C(=O)NNC(=O)C(NC(=O)c2ccccc2NC(=O)c2ccco2)C(C)C)cc1 (stereo not drawn) | inconclusive [inhibitor, partial curve] | 
46 | Cn1cccc1-c1cc(C(=O)N/N=C/c2ccc(F)cc2)[nH]n1 | inconclusive [inhibitor, full curve, poor fit] | 
47 | Cc1csc(NC(=O)CSc2nccn2Cc2ccco2)n1 | inconclusive [inhibitor, full curve] | 
48 | CC(C)(C)c1ccc(C2C(C#N)=C(N)Oc3n[nH]c(-c4cccnc4)c32)cc1 (stereo not drawn) | inconclusive [inhibitor, full curve, poor fit] | 
49 | CCOC(=O)CSc1nnc(CSc2nc3sc4c(c3c(=O)[nH]2)CCCC4)n1-c1ccccc1 |  | inactive: -10.8%
50 | Cc1ccc([C@H]2C(C(=O)O)=CC[C@@H](c3ccc(Cl)c(Cl)c3)N2S(=O)(=O)c2ccc(C)cc2)cc1 | inconclusive [inhibitor, partial curve] | 
51 | COc1ccc(S(=O)(=O)N(CC(=O)N/N=C/c2cccs2)c2ccc(C)cc2)cc1OC |  | inactive: -2.95%
52 | O=C(/C(C=Nc1cccc(C(F)(F)F)c1)=C(/O)c1ccco1)C(F)(F)F | inconclusive [inhibitor, single point] | 
53 | OC(c1ccc(-c2ccccc2)cc1)c1ncc(-c2ccc(F)cc2)[nH]1 (stereo not drawn) |  | inactive: -28.4%
54 | Cc1c(F)cccc1NS(=O)(=O)c1ccc2c(c1)NC(=O)CO2 |  | inconclusive: -16.8% [inhibitor]
55 | C=CCn1c(N)cc(=O)nc1SCC(=O)Nc1ccccc1C(N)=O | inconclusive [inhibitor, full curve, poor fit] | 
56 | COC(=O)C1CCN(c2cnccn2)CC1 | inconclusive [inhibitor, partial curve, poor fit] | 
57 | COCC(C)NCc1cccc2ccccc12 (stereo not drawn) | inconclusive [inhibitor, single point] | 
58 | Cc1ccn2c(=O)nc(SCC(=O)Nc3ccc4c(c3)OCO4)nc2c1 | inconclusive [inhibitor, partial curve] | 
59 | Cc1ccc(NC(=O)CSc2nnc(N)s2)c([N+](=O)[O-])c1 | inconclusive [inhibitor, single point] | 
60 | COc1cc(/C=C2\COC/C(=C\c3cc(OC)c(OC)c(OC)c3)C2=O)cc(OC)c1OC | inconclusive [inhibitor, full curve, poor fit] | 
61 | O=C(O)CN1C(=O)/C(=C\c2cc(Br)ccc2OCc2ccc(Cl)cc2)SC1=S | inconclusive [inhibitor, partial curve, poor fit] | 
62 | Cc1nc2ccccc2c2oc(C(=O)NCc3ccc4c(c3)OCO4)cc12 | inconclusive [inhibitor, partial curve] | 
63 | COc1ccc(C(=O)c2cc3c(cc2[N+](=O)[O-])OCCO3)cc1 | inconclusive [inhibitor, single point] | 
